Among all 270,000 compounds or so, about 620 (0.23%) were called active. Inconclusive results, whose numbers are uncertain, are shown with a selection of clear calls. Calls follow the shape of the dose curve; as a rule, active = well fitted inhibition curve with a large enough effect in the polarisation, with a control signal flat (not every such curve was filed as active); inconclusive = small, poorly fitted or top-dose-only effect, or effect the other way, or a change in a side signal; inactive = no such curve, though single readings can be large or run the other way; the % refers to the polarisation. Potencies of inconclusive entries are doubtful fits and often do not repeat. “Side channel” marks fits to a control or component signal instead of the main read-out.
target: Menin (Homo sapiens) (UniProt O00255); test: qHTS Assay for Inhibitors Targeting the Menin-MLL Interaction in MLL Related Leukemias: Competition With Texas Red Labeled MLL-derived Mutant Peptide; settings: fluorescence polarization; FP activity change, negative = inhibition: at 61.6 µM (top of the series); as to FP activity change, negative = inhibition: % of control where 0% means no effect
Potency is read from the fitted curve at half-maximal effect; tags tell the direction and shape of the fitted curve or compound fluorescence and quenching.

Sequence of UniProt O00255 (O00255 whole entry, looked up): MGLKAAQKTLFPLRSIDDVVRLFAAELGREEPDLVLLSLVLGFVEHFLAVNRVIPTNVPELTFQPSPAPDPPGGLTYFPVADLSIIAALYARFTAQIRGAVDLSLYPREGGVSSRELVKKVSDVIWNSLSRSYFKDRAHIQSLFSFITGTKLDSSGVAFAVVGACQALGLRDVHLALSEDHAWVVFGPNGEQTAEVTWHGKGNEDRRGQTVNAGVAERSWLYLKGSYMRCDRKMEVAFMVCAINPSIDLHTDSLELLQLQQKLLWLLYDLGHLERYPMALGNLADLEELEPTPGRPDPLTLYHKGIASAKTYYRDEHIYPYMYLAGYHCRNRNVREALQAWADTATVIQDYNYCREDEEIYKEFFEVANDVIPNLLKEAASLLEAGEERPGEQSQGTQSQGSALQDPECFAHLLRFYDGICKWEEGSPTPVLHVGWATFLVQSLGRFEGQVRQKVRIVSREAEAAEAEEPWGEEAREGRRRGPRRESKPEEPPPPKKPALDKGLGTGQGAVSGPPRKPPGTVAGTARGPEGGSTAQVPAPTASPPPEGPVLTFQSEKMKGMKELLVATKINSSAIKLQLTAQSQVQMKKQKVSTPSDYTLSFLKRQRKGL

Compound | Potency | FP activity change, negative = inhibition
COc1ccc(C(=O)CC(=O)C(=O)Nc2cc([N+](=O)[O-])ccc2OC)cc1 | inconclusive: 17.8 µM [quencher, side channel, partial curve] | –
CCOc1ccccc1N1CCN(C(=S)NCc2ccc(Cl)cc2)CC1 | inconclusive: 7.94 µM [quencher, side channel, full curve] | –
CNc1oc(-c2cccc3ccccc23)nc1C#N | inconclusive: 28.2 µM [quencher, side channel, partial curve] | –
CC#CC(=O)Nc1cc2c(Nc3ccc(F)c(Cl)c3)ncnc2cn1 | inconclusive: 14.1 µM [quencher, side channel, partial curve] | –
CCn1cc(C(=O)NCCOC)c(=O)c2ccc(C)nc21 | inconclusive: 11.2 µM [inhibitor, partial curve] | –
COc1ccc2c(c1)cc(C(=O)N/N=C/c1c(O)c(C(=O)O)cc3ccccc13)n2C | inconclusive: 8.91 µM [quencher, side channel, partial curve] | –
Cc1ccc(NC(=O)Cn2c(=O)c3cccn3c3ccccc32)c(Cl)c1 | inconclusive: 28.2 µM [fluorescent, side channel, single point] | –
O=C(C[n+]1ccn(CCCNP2(=O)C=C(c3ccccc3)OC(c3ccccc3)=C2)c1)c1cccs1 | inconclusive: 2 µM [fluorescent, side channel, full curve] | –
COc1ccc(Cc2nnc(NN)[nH]c2=O)cc1OC | – | inactive: -9.9%
CCOc1ccc2nc(N/C(N)=N/S(C)(=O)=O)nc(C)c2c1 | inconclusive: 3.55 µM [inhibitor, single point] | –
O=C(O)c1cc(S(=O)(=O)N(Cc2ccccc2)c2ccc(Cl)cc2)ccc1Cl | inconclusive: 10 µM [quencher, side channel, partial curve] | –
O=C(Nc1ccc(Br)cc1)c1cccc(N2C(=O)C3C4C=CC(C4)C3C2=O)c1 (stereo not given) | inconclusive: 8.91 µM [quencher, side channel, partial curve] | –
c1ccc2c(Nc3ccc4c(c3)OCCO4)c3c(nc2c1)CCCC3 | inconclusive: 39.8 µM [inhibitor, single point] | –
Cc1ccccc1N1CCN(C(=O)C2CCC(=O)N(C3CCCC3)C2)CC1 (stereo not given) | inconclusive: 3.55 µM [quencher, side channel, single point] | –
CN1CCc2c(sc3nc(SCC(=O)N4CCOCC4)nc(N)c23)C1 | – | inactive: 12.1%
O=C(O)/C=C/C(=O)Nc1ccccc1-c1ccccc1 | inconclusive: 0.631 µM [inhibitor, partial curve, poor fit] | –
O=S(=O)(Nc1nc2ccccc2nc1N1CCN(c2ccccc2)CC1)c1ccc(F)cc1 | inconclusive: 14.1 µM [quencher, side channel, partial curve] | –
Cc1[nH]c2ccccc2c1/C=N/NC(=O)c1cccc(F)c1 | inconclusive: 17.8 µM [quencher, side channel, partial curve] | –
CC(C)C(=O)NC(NC(=S)Nc1cccc2cccnc12)C(Cl)(Cl)Cl (stereo not given) | inconclusive: 12.6 µM [quencher, side channel, partial curve] | –
Cc1cccc(C)c1NC(=S)N/N=C/c1c(Cl)cccc1Cl | inconclusive: 31.6 µM [inhibitor, single point] | –
NC(=O)c1cnn2c1NC(c1ccc(F)cc1)CC2C(F)(F)F (stereo not given) | – | inactive: -8.77%
O=C1C2=C(Nc3ccccc3SC2c2ccco2)c2ccccc21 (stereo not given) | inconclusive: 28.2 µM [quencher, side channel, partial curve] | –
COc1cccc(/C=N/NC(=O)c2cc3cc([N+](=O)[O-])ccc3s2)c1O | inconclusive: 8.91 µM [quencher, side channel, full curve] | –
O=C(c1cc(-c2ccncc2)nc2ccccc12)N1CCN(S(=O)(=O)/C=C/c2ccccc2)CC1 | inconclusive: 3.55 µM [inhibitor, partial curve] | –
C/C(=N\NC(=O)Cc1ccc(Cl)cc1)c1ccccc1O | inconclusive: 15.8 µM [quencher, side channel, single point] | –
Cc1ccc(C(=O)[C@@H]2[C@H]3C4COC(O4)C(=O)[C@@H]3[C@H]3C=Cc4ccccc4N32)cc1 (stereo not given in full) | inconclusive: 14.1 µM [quencher, side channel, partial curve] | –
O=C(CSc1nc(-c2ccc(F)cc2)cc(C(F)(F)F)n1)NCc1ccco1 | inconclusive: 17.8 µM [fluorescent, side channel, single point] | –
CCOC(=O)CSc1nnc(-c2ccoc2C)n1-c1ccc(OCC)cc1 | – | inactive: 1.61%

Compound | Potency | FP activity change, negative = inhibition
CN(C)CCN(C(=O)c1ccc2c(c1)OCCO2)c1nc2ccc(Cl)cc2s1 | inconclusive: 14.1 µM [fluorescent, side channel, partial curve] | –
Cc1nnc2n(Cc3ccccc3)c(=O)c3c4c(sc3n12)COC(C(C)C)C4 (stereo not given) | inconclusive: 28.2 µM [fluorescent, side channel, partial curve, poor fit] | –
C=CCc1cccc(CNc2nc3ccccc3n2CCN2CCOCC2)c1O | inconclusive: 17.8 µM [quencher, side channel, partial curve] | –
N#C/C(C(=O)NCc1ccco1)=C1/SC=C(c2ccccc2)N1c1ccccc1 | inconclusive: 15.8 µM [fluorescent, side channel, partial curve] | –
CCC(=O)N(Cc1cc(=O)[nH]c2ccccc12)c1ccc(C)cc1C | inconclusive: 10 µM [fluorescent, side channel, full curve, poor fit] | –
CCOc1ccc(N(CC(=O)NC2CCCCC2)S(=O)(=O)c2ccc(C)cc2)cc1 | inconclusive: 14.1 µM [fluorescent, side channel, partial curve] | –
CC(C)(C)C1CCC2(CC1)C(C#N)=C(SCC(=O)Nc1ccccc1)NC(=O)C2C#N (stereo not given) | inconclusive: 17.8 µM [quencher, side channel, partial curve] | –
COc1cc(C(=O)Nc2ccc3c(c2)C(=O)c2ccccc2C3=O)cc(OC)c1OC | inconclusive: 7.08 µM [quencher, side channel, partial curve] | –
COc1ccc(/C=C/C(=O)Nc2sc(Cc3ccccc3)c(C)c2C(N)=O)cc1 | inconclusive: 3.55 µM [quencher, side channel, full curve] | –
CSc1nc(-c2ccc(Cl)cc2Cl)[nH]c(=O)c1C#N | inconclusive: 28.2 µM [quencher, side channel, partial curve] | –
CC(C(=O)Nc1cccc([N+](=O)[O-])c1)[n+]1ccccc1 (stereo not given) | inconclusive: 28.2 µM [quencher, side channel, partial curve] | –
COc1ccc(C(=O)/C=C/Nc2cc(C)on2)c(OC)c1 | inconclusive: 1.58 µM [inhibitor, full curve] | –
O=c1cc(O)c2sc(Nc3ccc(F)c(Cl)c3)nc2[nH]1 | inconclusive: 8.91 µM [quencher, side channel, full curve] | –
Cc1cc(C)n2cc(CSc3nnnn3-c3ccc(Cl)cc3)nc2n1 | – | inactive: -14.1%
CC1CCc2cc(F)ccc2N1C(=O)CSc1nnc2c3cc(F)ccc3n(C)c2n1 (stereo not given) | inconclusive: 6.31 µM [fluorescent, side channel, single point] | –
Cc1cccc(C2=NN(c3ccccc3)[C@H](CO)[C@H]2c2ccccc2)c1 | inconclusive: 22.4 µM [quencher, side channel, partial curve] | –
O=C(CCCCC(=O)NNC(=O)COc1ccccc1)NNC(=O)COc1ccccc1 | inconclusive: 39.8 µM [fluorescent, side channel, single point] | –
Cc1ccc(N2C(=O)C(CN3CCCC3)C2c2ccccc2)cc1 (stereo not given) | inconclusive: 14.1 µM [fluorescent, side channel, partial curve] | –
c1ccc(CN2CCC3(CCCc4ccccc43)CC2)cc1 | inconclusive: 14.1 µM [fluorescent, side channel, partial curve] | –
O=S(=O)(Nc1ccc(S(=O)(=O)Nc2cccc3ccccc23)cc1)c1ccccc1 | inconclusive: 11.2 µM [quencher, side channel, partial curve] | –
COc1ccc(C(=O)NC2CCN(S(=O)(=O)c3ccc(C)cc3)CC2)cc1 | inconclusive: 28.2 µM [fluorescent, side channel, single point] | –
CN(C)c1ccc(N=Nc2cccc3ccoc23)cc1 | inconclusive: 17.8 µM [quencher, side channel, partial curve] | –
O=C(CN1CCCCC1)Nc1nnc(-c2ccc([N+](=O)[O-])cc2)s1 | inconclusive: 12.6 µM [quencher, side channel, partial curve] | –
CCCc1ccc(Oc2cn[nH]c2-c2ccc(O)cc2O)cc1 | inconclusive: 39.8 µM [quencher, side channel, single point] | –
CC1CN(S(=O)(=O)c2ccc(C(=O)Nc3sccc3C(N)=O)cc2)CC(C)O1 (stereo not given) | inconclusive: 14.1 µM [quencher, side channel, partial curve] | –
COc1ccc(C(=O)Nc2cc(C(C)=O)c(/C=C/N(C)C)oc2=O)cc1 | inconclusive: 3.16 µM [inhibitor, partial curve] | –
Cc1ccc(C(c2nnnn2C2CCCC2)N2CCN3CCCC3C2)cc1 (stereo not given) | inconclusive: 1.58 µM [inhibitor, full curve, poor fit] | –
